Results: the supplement of paper PMC12645437, “Orthogonal IMiD-Degron Pairs Induce Selective Protein Degradation in Cells” (ACS Chemical Biology, 2025)
Some of the results follow.

Each sequence was assayed against no compound (DMSO) (assay: log2 fold change of degron read counts, EGFP-low vs EGFP+ sorted cells; higher = lower degron-EGFP level without compound (poor expression or instability)). Details: compound: DMSO control; 18 h.
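Also: jurkat cells carrying a lentiviral library of mutant zinc finger degrons fused to EGFP plus mCherry, mCherry+ cells FACS sorted, degron abundance counted by next-generation sequencing.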

Sequence | log2 fold change of degron read counts
FDCDQCGALFTQKGNLLRHIKL | -0.443
FYCNQCGHNFTQKGNLLRHIKL | 0.272
FECPICGALFTQKGNLLRHIKL | -0.0829
LVCNQCGFLCTQKGNLLRHIKL | 0.943
LGCPICGFLCTQKGNLLRHIKL | 1.71
FNCDQCGADFTQKGNLLRHIKL | -1.44
LLCEICGFECTQKGNLLRHIKL | -0.461
LKCPICGFTCTQKGNLLRHIKL | 0.176
FTCEICGAQFTQKGNLLRHIKL | -1.13
FWCPVCGAGFTQKGNLLRHIKL | 1.01
FYCPVCGAWFTQKGNLLRHIKL | 0.769
FVCEICGHRFTQKGNLLRHIKL | -1.35
FKCNQCGAPFTQKGNLLRHIKL | -1
FNCSVCGHWFTQKGNLLRHIKL | 1.38
FRCNICGAIFTQKGNLLRHIKL | -0.0323
FVCEICGATFTQKGNLLRHIKL | -2.3
LDCNQCGFFCTQKGNLLRHIKL | 1.9
FRCPICGALFTQKGNLLRHIKL | 0.34
FICNICGAMFTQKGNLLRHIKL | 0.158
FNCEVCGANFTQKGNLLRHIKL | -2.07
FTCEICGHNFTQKGNLLRHIKL | -1.71
FGCPICGRKFTQKGNLLRHIKL | -0.984
FKCPICGRKFTQKGNLLRHIKL | -1.59
FACNQCGHDFTQKGNLLRHIKL | 0.0501
LECEICGFCCTQKGNLLRHIKL | -0.612

Sequence | log2 fold change of degron read counts
LSCPICGFPCTQKGNLLRHIKL | 1.16
LHCEICGFKCTQKGNLLRHIKL | -0.746
FKCNQCGRYFTQKGNLLRHIKL | 0.366
FICPVCGALFTQKGNLLRHIKL | 0.146
LDCNQCGFDCTQKGNLLRHIKL | -0.135
LKCPICGFRCTQKGNLLRHIKL | 0.15
LICPICGFECTQKGNLLRHIKL | 0.404
FWCPICGRYFTQKGNLLRHIKL | 0.549
FCCDICGARFTQKGNLLRHIKL | -0.293
FHCEVCGAEFTQKGNLLRHIKL | -1.76
FSCPICGHGFTQKGNLLRHIKL | -0.629
FKCEICGANFTQKGNLLRHIKL | -1.32
FACNVCGADFTQKGNLLRHIKL | -0.888
FDCEQCGAFFTQKGNLLRHIKL | -0.144
FSCNQCGRTFTQKGNLLRHIKL | -0.335
FRCEICGRAFTQKGNLLRHIKL | -1.48
FRCNVCGAYFTQKGNLLRHIKL | 0.222
FLCEICGHHFTQKGNLLRHIKL | -1.38
FICEICGRWFTQKGNLLRHIKL | -0.696
FHCDQCGAHFTQKGNLLRHIKL | -0.998
FNCDVCGASFTQKGNLLRHIKL | -1.9
FYCNQCGHPFTQKGNLLRHIKL | 0.363
FRCPICGRPFTQKGNLLRHIKL | 0.153
FDCNVCGAVFTQKGNLLRHIKL | -0.751
FVCEVCGAHFTQKGNLLRHIKL | -1.35
